# The whole screen tested about 150,000 compounds, of which about 540 (0.36%) showed an effect of 50% or more. Some of the results follow.
# Test system: Plasmodium falciparum
# Experiment: Primary screen in NF54 nanoGlo assay, in single point, at 2uM, 72h; a lower Z score goes with more inhibition
# Type: functional, Erythrocyte
# Conditions: timepoint 72 hour
SMILES,% Inhibition,Z score
CC(C)(C)c1nnc([C@H]2CCN(Cc3ncc[nH]3)C2)o1,-9%,1.38
CC1(C)Cc2cccc(OCC(=O)N3CCN(C(=O)c4cnn5ccccc45)CC3)c2O1,-7%,1.08
O=C(Nc1ccc2cncn2c1)[C@@H]1CCCCO1,-10%,1.11
CCc1nnc(CN(C)c2ccccc2N(C)C)n1C,1%,-0.09
COC(=O)[C@@H]1CN(Cc2ncc(-c3ccccc3C)o2)CCO1,-10%,1.03
COc1cn(C)nc1[C@H](C)Nc1cnccn1,9%,-1.09
CC(C)(C)NC(=O)NC[C@@H]1OCCc2sccc21,-12%,1.21
Cc1cc(-c2cc(S(=O)(=O)N3C[C@@H]4CC[C@H]3CN(C)C4)c(C)s2)[nH]n1,-10%,0.96
N#Cc1ncn(CC(=O)N(C2CCCC2)C2CC2)n1,-3%,0.6
CC[C@H]1CN(C(=O)c2cccc(N)n2)CCO1,-4%,0.51
CC[C@H]1CCCCN1C(=O)c1cnn(-c2nccc(-c3cccs3)n2)c1COC,11%,-1.45
CS(=O)(=O)c1cnn(C[C@H](O)c2ccc(F)c(F)c2)c1,-1%,0.14
CC(C)CN(C1CCN(C)CC1)C1CN(C(=O)COCc2ccccc2)C1,-9%,1.15
O=C(N[C@@H]1CN(C(=O)C2CCC2)C[C@H]1CO)c1ccccc1,-8%,1.44
O=C(Nc1ccc2c(c1)OCCO2)N1Cc2ccccc2Oc2ncccc21,-13%,1.7
CN(CCO)Cc1nnc(C2CCN(C(=O)c3cc(C4CC4)n[nH]3)CC2)n1C,-7%,1.02
Cc1cc(C(=O)Nc2nc(-c3cc(C(N)=O)oc3C)cs2)no1,-10%,1.46
O=C1C[C@@H](c2ccccc2)N(C(=O)Cc2ccc(F)c(F)c2)CCN1,-12%,1.63
N#Cc1ncn(CCC2=CCCCC2)n1,-5%,0.73
Cc1cc(N(C)C)nc(CNC(=O)c2cccnc2)n1,3%,-0.4
Cc1ccc(NC(=O)CCCc2nc3cccnc3n2C2CCCCC2)cc1,1%,-0.21
CCN(C(=O)C1=NN(c2ccccc2)[C@H](C(N)=O)C1)c1ccccc1,4%,-0.64

SMILES,% Inhibition,Z score
Cc1cc(C)c(CNC(=O)c2cncc3ccccc23)c(=O)[nH]1,-11%,1.48
c1ccc(CNCCN2CCCC3CCCC32)cc1 (configuration not stated),-1%,0.11
CCN1C(=O)CN(C(=O)c2ccc3ncccc3c2)CC12CCOCC2,-9%,1.12
O=C(N[C@H]1COCC[C@@H]1Oc1ccccn1)c1cccnc1O,-10%,1.4
O=C(c1cc(O)c(OCc2ccccc2)cn1)N1CCc2ccccc2C1,1%,-0.06
CCOC1(C(=O)N[C@H]2CCn3ccnc32)CCCC1,-3%,0.65
Cc1cc(CN(CCS(C)(=O)=O)C(C)C)no1,-11%,1.14
CN(C)Cc1csc(CNC(=O)Nc2cc3n(n2)CCN(C)C3)n1,6%,-0.92
COc1nn(C)cc1CNC(=O)[C@@H]1CCc2cccc(O)c21,-5%,0.83
CC(=O)Nc1ccc(C(=O)N2C3CCC2CC(n2cncn2)C3)cc1 (configuration not stated),-5%,0.53
COCc1ccc(C(=O)NCc2nccn2C(C)C)s1,5%,-0.95
Cc1ccc2nc(NC(=O)CCC(=O)OC3CCC(C)C(C)C3)sc2c1 (configuration not stated),-9%,1.29
Cc1ccc(Cc2nc(N3CCN(C(=O)Nc4cccc(Br)c4)CC3)c3c(-c4cccnc4)noc3n2)cc1,-10%,1.99
CC(C)Oc1ccc(-c2noc(-c3nn(-c4ccc(Cl)cc4)ccc3=O)n2)cc1,-1%,0.18
O=c1ccc(-c2ccc3c(c2)OCO3)n[nH]1,-7%,1.17
Cc1nc2ccc3nc(NC(=O)CN4C(=O)c5ccccc5C4=O)sc3c2s1,-8%,1.32
Cc1cc(C(=O)N(C)Cc2cccnc2)cc(=O)[nH]1,-5%,0.92
CCNC(=NCc1ccc(CC)s1)NCC,-4%,0.74
CCCn1c(C)cnc1CCNC(=O)c1ccoc1,-7%,0.73
COc1cccc(CN2CC3(CCN(C(=O)c4cncnc4C)CC3)CC2=O)c1,-9%,1.8
COCCn1c(C)cc(C(=O)N2CCC3(CC2)C[C@@H](CCO)CCO3)c1C,-7%,1.41
Cc1ccc(Cl)cc1-n1ncc2c(NCc3ccc4c(c3)OCO4)ncnc21,8%,-0.91

SMILES,% Inhibition,Z score
Cn1cc(C(=O)N2CC[C@H](Oc3cccc(Cl)c3)C2)ccc1=O,-4%,0.47
CCN1Cc2ccccc2C[C@H]1C(=O)NC1CCN(S(=O)(=O)c2ccccc2)CC1,-10%,0.93
Cc1ccc(C(C)(C)CN(C)S(=O)(=O)N(C)C)cc1,-9%,1.26
CN(C)c1ccc(CNc2nc[nH]n2)cc1,-7%,0.6
CN(C)CCCC1(O)c2ccccc2C=Cc2ccccc21,-32%,3.78
COC(C(=O)N1CCCCC1C(=O)N1CCOCC1)C1CC1 (configuration not stated),-9%,1.21
O=C(NCc1ccco1)c1nnsc1NC(=O)N1CCOCC1,-2%,0.32
Cc1noc(C)c1CCC(=O)N1CC[C@@H](c2cccs2)S(=O)(=O)CC1,-11%,1.87
O=C1[C@@H]2C[C@@H](O)CN2C2(CN(Cc3ccccc3)C2)C(=O)N1Cc1cccnc1,-12%,2.14
CC(=O)N1CCC[C@H]1c1nc(-c2cccc(C(F)(F)F)c2)c[nH]1,14%,-1.86
Cn1c(C(=O)Nc2ccc(N3CCCCC3)cc2)cccc1=O,-14%,2.68
CN1CCN(C(=O)c2ccc(NCCc3ccc(Cl)cc3)c(S(=O)(=O)Nc3cccc(C(F)(F)F)c3)c2)CC1,23%,-2.7
Cc1ccc(NC(=O)c2ccc(C(=O)Nc3ccc(C)c(Cl)c3)s2)cc1Cl,-9%,1.3
COc1ccc(-c2c3c(cc(C)[n+]2[O-])oc2ccc(OC)cc23)cc1,5%,-0.68
CC(C)C[C@@H](CO)NC(=O)Nc1cccs1,-13%,2.38
CCc1noc(C)c1C(=O)N[C@H]1CCN(Cc2cccnc2)C[C@@H]1O,-8%,1.02
Cc1cc(N2CCCC2)nc(N2CCN(C(=O)C3CCCC3)CC2)n1,-9%,1.77
O=C(C[C@H]1CC(=O)Oc2ccccc21)NCc1ccncc1,-5%,0.54
Cn1cc(C(=O)NCC#CCOc2ccccc2C(N)=O)nn1,-18%,2.28
CCN(CCC(=O)NCCN1CCCCC1)C(=O)c1cc2n(n1)CCCN(Cc1ccccc1C)C2=O,5%,-0.63
Cc1n[nH]cc1CNC(=O)N1CCOCC1C1CCCC1O (configuration not stated),-7%,1.35
Cc1cccc2c1CN(C(=O)OC(C)(C)C)CCN2C(=O)c1ccnc(N(C)C)c1,-7%,1.23

SMILES,% Inhibition,Z score
Cc1cc(CNC(=O)N[C@@H]2CCc3cc(F)ccc32)on1,-7%,0.96
Cc1csc2c(NCCN3CCc4ccccc4C3=O)ncnc12,-8%,1.47
O=C(Nc1cc2c(cn1)CCC2)N1CC2(CCCC2)C1,8%,-0.89
NC(=O)[C@H](Cc1ccccc1)n1cnc2c(F)cccc2c1=O,-8%,1.52
COC[C@H](NC(=O)c1cnc(-c2csc(C)n2)nc1O)c1ccnn1C,1%,-0.18
Cc1cnc(OC2CCN(Cc3ccncc3Cl)CC2)nc1,13%,-1.77
Cc1nc(-c2nc(CN3CCOC3=O)n(Cc3ccccc3C)n2)cs1,-5%,1.09
Cc1noc(C)c1CN1C(=O)[C@@H]2CC[C@H]1CN(c1ncccn1)C2,-8%,1.61
CCCc1ncc(C(=O)N[C@H]2CCCC[C@@H]2O)s1,1%,-0.11
Cc1cccc(C(=O)NC[C@@]23CCCC=C2NC(=O)CC3)c1,-6%,0.91
CCN(Cc1nccn1C)c1ccc(-c2nc(C(C)C)no2)cn1,-3%,0.5
Cc1cc(C)c(C(=O)NCC#C[C@@H]2CCCCO2)c(C)n1,-23%,2.49
COC(=O)C[C@@H](C)CC(=O)Nc1nnc(C2CCCC2)[nH]1,-12%,2.56
CCc1ccc(-c2nn(CC)c(=O)c3c2CCCC3)cc1S(=O)(=O)N(CC)CC,8%,-1.58
O=C(NCc1ccccc1CN1CCCCC1)c1coc(Br)c1,-5%,0.89
Cc1cccc(S(=O)(=O)N2CCc3nc(-c4ccc(Cl)cc4)ncc3C2)c1,-9%,1.45
CC1(C)CN(C(=O)c2ccnc(-n3cccn3)c2)[C@H]2COC[C@H]21,-9%,1.71
CCN1CC2(CCN(c3cccc([C@H](C)O)n3)CC2)CC1=O,-13%,1.64
CCC1CCC(CNC(=O)C2(N)CCC(O)C2)CC1 (configuration not stated),13%,-1.6
CN1CCO[C@@H]2CN(C(=O)NCc3noc(C4CC4)n3)C[C@@H]21,-6%,0.85

# Source: ChEMBL document CHEMBL4888484, “Replenishing the malaria drug discovery pipeline: Screening and hit evaluation of the MMV Hit Generation Library 1 (HGL1) against asexual blood stage Plasmodium falciparum ,using a nano luciferase reporter read-out” (2022)
